Consider 22 molecules from article PMC4336329 (PLoS ONE, 2015).

About 14,000 (4.5%) of roughly 310,000 compounds showed an effect of 50% or more. Effects have a minus sign here. Some of the results follow.
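Also: peak tail current of the secondary pulse compared with the same well before compound.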

This test deals with human ether-à-go-go-related gene (hERG) potassium channel (human, UniProt Q12809). Briefly: primary screen, population patch clamp on CHO cells stably expressing hERG.
Sequence of human ether-à-go-go-related gene (hERG) potassium channel (Q12809 whole entry, looked up): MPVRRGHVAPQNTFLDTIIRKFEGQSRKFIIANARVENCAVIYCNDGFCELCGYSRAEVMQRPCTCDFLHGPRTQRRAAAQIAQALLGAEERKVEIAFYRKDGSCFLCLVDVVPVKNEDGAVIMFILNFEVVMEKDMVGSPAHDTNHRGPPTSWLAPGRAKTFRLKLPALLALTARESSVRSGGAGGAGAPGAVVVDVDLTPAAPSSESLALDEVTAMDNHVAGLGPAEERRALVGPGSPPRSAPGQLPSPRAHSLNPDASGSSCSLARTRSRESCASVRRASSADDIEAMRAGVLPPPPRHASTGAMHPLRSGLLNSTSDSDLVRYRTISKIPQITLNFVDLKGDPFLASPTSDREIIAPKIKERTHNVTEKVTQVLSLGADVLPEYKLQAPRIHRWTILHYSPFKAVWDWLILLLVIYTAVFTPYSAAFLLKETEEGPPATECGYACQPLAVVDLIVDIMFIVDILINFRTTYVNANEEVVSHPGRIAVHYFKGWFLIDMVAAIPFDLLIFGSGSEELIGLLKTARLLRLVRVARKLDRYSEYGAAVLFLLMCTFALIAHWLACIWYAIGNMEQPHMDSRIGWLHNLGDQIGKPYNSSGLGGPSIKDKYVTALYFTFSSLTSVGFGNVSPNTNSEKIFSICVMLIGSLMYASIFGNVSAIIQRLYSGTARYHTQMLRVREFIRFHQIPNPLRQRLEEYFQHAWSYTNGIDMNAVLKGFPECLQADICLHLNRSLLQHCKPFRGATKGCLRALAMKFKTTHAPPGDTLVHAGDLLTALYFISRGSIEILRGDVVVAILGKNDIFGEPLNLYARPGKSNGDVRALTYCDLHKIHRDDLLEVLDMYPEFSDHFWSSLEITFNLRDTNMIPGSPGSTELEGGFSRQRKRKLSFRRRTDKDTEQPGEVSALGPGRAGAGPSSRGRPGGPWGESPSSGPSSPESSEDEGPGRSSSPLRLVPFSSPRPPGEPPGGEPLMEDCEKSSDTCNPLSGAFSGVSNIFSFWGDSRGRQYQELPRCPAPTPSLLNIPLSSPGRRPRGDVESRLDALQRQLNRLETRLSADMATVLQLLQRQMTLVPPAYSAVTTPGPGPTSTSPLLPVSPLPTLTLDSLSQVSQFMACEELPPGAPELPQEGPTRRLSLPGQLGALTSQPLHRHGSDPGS
With `O=C(CC(=O)N/N=C/c1ccccc1O)NCc1cccnc1`, the “hERG current change (%, negative = inhibition) at 10uM” value was -6.06%.
Then `O=S(=O)(c1c(F)cccc1F)N1CCN(C(=S)NCc2ccc3c(c2)OCO3)CC1`, with 39.1%; and `O=C(O)C(=O)O.O=[N+]([O-])c1cccc(OCCCN2CCC(Cc3ccccc3)CC2)c1`, with -78.1%; and `COC(=O)C1=C(c2ccc(OC(F)(F)F)cc2)C[C@@H]2CC[C@H]1N2C(=O)NCCNC(C)=O`, with 2.65%.
The same measure for `COc1cccc(N/C(SCc2ccccc2Cl)=C(/C#N)C(=O)NCc2cccs2)c1`: 9.67%; for `CC1=C(C(N)=O)C(c2cccnc2)n2nc(SCc3ccccc3Cl)nc2N1` (stereo not shown): 0.298%; for `COc1ccc(CCNC(=O)c2ccc(N3CCCCS3(=O)=O)cc2)cc1OC`: 8.5%.
In the case of `O=C(CSc1nc2ccccc2[nH]1)Nc1nc(-c2ccccc2)c(-c2ccccc2)o1`, the “hERG current change (%, negative = inhibition) at 10uM” value was -3.44%.
Regarding `COc1ccc(NC(=O)CN(C)CC(=O)N(C)C2(C#N)CCC(C)CC2)cc1` (stereo not shown), the “hERG current change (%, negative = inhibition) at 10uM” value is on record as -8.16%.
Then `CCN(C(=O)C1CCCN(c2nc(-c3ccc(OC)cc3)no2)C1)c1ccc(OC)cc1` (stereo not shown), with -0.461%.
The same measure for `COc1ccc(-c2noc(C3CCCN(S(=O)(=O)c4cccc(Cl)c4)C3)n2)cc1OC` (stereo not shown): -3.87%; for `Cc1ccc(S(=O)(=O)N(CC(=O)N=Nc2c(O)[nH]c3ccccc23)c2ccc(C)c(C)c2)cc1`: 5.7%; for `CCOc1ccc(C2C(C#N)=C(N)Oc3cc(C)n(Cc4ccco4)c(=O)c32)cc1OC` (stereo not shown): -9.3%.
On to `CC(C)C(C(=O)OCC(=O)c1ccc2c(c1)NC(=O)CO2)N1C(=O)c2ccccc2C1=O` (stereo not shown), for which the “hERG current change (%, negative = inhibition) at 10uM” value was -3.1%.
Then `Cc1c(C(=O)NCc2ccccn2)oc2c(Cl)cccc12`, with -19.3%; and `CCc1cc(=O)oc2cc3oc(C)c(C)c3cc12`, with -7.76%.
Then `CCC(C)c1ccccc1N1CC(C(=O)Nc2ccc(N3CCOCC3)cc2)CC1=O` (stereo not shown), with 0.799%.
Then `CCC(C)c1ccc(S(=O)(=O)N2CCN(C(C)CC(=O)O)CC2)cc1` (stereo not shown), with 3.41%; and `O=C(Cc1ccc(Cl)cc1)Nc1ccc2oc(-c3ccncc3)nc2c1`, with 7.8%; and `Cc1cc(NC(=O)COC(=O)C2CCC2)no1`, with 16.1%.
For `CCn1c(=O)c(C(=O)CN2CCc3ccccc32)c(N)n(Cc2ccccc2)c1=O`, the “hERG current change (%, negative = inhibition) at 10uM” value is 19%.
Then `CCOCCCNS(=O)(=O)c1ccc(OC)c(Cl)c1Cl`, with 5.64%.
